Reference: patent US10894817B2, “Fatty acid modified urocortin-2 analogs for the treatment of diabetes and chronic kidney disease” (priority 2016, dated 2021)
At least one structure is not confirmed: it was looked up by name or label, or the drawing left a doubt. Some results were stated once for a whole list of compounds, not compound by compound. Starred links: 1 amine or outer side, 2 acyl side, 3 side chain; linkers in the order of their positions; H or OH if unused. Non-standard residues stand in square brackets, D forms with d. Residues, ends and D or L forms follow the SMILES beside them. Groups on a side chain read outwards from the residue. *: point of attachment. C20 diacid = O=C(O)CCCCCCCCCCCCCCCCCCC(=O)*; γGlu = O=C(O)[C@H](CCC(=O)[*:2])N[*:1]; NMeI = CC[C@H](C)[C@H](NC)C(=O)O; AEEA = NCCOCCOCC(=O)O

Experiments:
DIO mice = experiment: In vivo Diet Induced Obesity (DIO) model, chronic dose administration; set-up: species or system C57BL6 mice; settings: for Fat mass change (g ± SEM) / Lean mass change (g ± SEM): day 1 to day 15; for Blood glucose AUC during ipGTT / Serum insulin AUC during ipGTT: ipGTT day 16
human CRHR2b = biological target: T1, human CRHR2b (Homo sapiens, UniProt Q13324); experiment: human CRHR2b cell-based cAMP assay; settings: statement in words
T1 construct: expressed in transfected cells; host or cells: Chinese Hamster Ovary (CHO) cells, transient transfection
T1 sequence (Q13324 1-438 isoform Q13324-2): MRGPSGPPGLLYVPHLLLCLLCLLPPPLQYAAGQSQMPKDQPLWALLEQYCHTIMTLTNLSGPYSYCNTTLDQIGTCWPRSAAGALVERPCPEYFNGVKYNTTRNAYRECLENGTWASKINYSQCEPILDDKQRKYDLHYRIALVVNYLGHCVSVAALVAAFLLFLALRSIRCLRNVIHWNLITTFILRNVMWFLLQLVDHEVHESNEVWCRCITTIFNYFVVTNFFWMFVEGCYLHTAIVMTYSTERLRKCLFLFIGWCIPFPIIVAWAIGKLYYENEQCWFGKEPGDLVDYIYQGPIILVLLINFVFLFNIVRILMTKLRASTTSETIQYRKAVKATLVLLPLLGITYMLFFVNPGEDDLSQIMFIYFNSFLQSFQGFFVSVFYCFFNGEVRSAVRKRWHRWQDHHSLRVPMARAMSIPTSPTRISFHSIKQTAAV
Method in brief: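 ED50 values are means ± SEM over several runs, curve-fitted from cAMP in pmol, calibrated against unlabeled-cAMP standards. Detection was HTRF competition, ratio 665/620 nm, after 30 min agonist exposure at 37 °C.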

[1] = male DIO mice, 2.4 nmol/kg s.c. days 1,4,7,10,13
[2] = male DIO mice, 7.2 nmol/kg s.c. days 1,4,7,10,13
[3] = male DIO mice, 24 nmol/kg s.c. days 1,4,7,10,13
[4] = male DIO mice, 72 nmol/kg s.c. days 1,4,7,10,13
[5] = male DIO mice, 144 nmol/kg s.c. days 1,4,7,10,13
[6] = male DIO mice, s.c. days 1,4,7,10,13, 2.4-144 nmol/kg
[7] = s.c. every third day for 15 consecutive days, statement in words

Structure (SMILES): CC[C@H](C)[C@H](NC)C(=O)N[C@H](C(=O)N[C@H](C(=O)N[C@@H](CO)C(=O)N[C@@H](CC(C)C)C(=O)N[C@@H](CC(=O)O)C(=O)N[C@H](C(=O)N1CCC[C@H]1C(=O)N[C@H](C(=O)NCC(=O)N[C@@H](CC(C)C)C(=O)N[C@@H](CC(C)C)C(=O)N[C@@H](CCC(N)=O)C(=O)N[C@H](C(=O)N[C@@H](CC(C)C)C(=O)N[C@@H](CC(C)C)C(=O)N[C@@H](CCC(=O)O)C(=O)N[C@@H](CCC(N)=O)C(=O)N[C@@H](CCC(=O)O)C(=O)N[C@@H](CCCCN)C(=O)N[C@@H](CCC(N)=O)C(=O)N[C@@H](CCC(=O)O)C(=O)N[C@@H](CCCCN)C(=O)N[C@@H](CCC(=O)O)C(=O)N[C@@H](CCCCN)C(=O)N[C@@H](CCC(N)=O)C(=O)N[C@@H](CCC(N)=O)C(=O)N[C@@H](C)C(=O)N[C@@H](CCCCNC(=O)COCCOCCNC(=O)COCCOCCNC(=O)CC[C@H](NC(=O)CC[C@H](NC(=O)CCCCCCCCCCCCCCCCCCC(=O)O)C(=O)O)C(=O)O)C(=O)N[C@H](C(=O)N[C@@H](CC(N)=O)C(=O)N[C@@H](C)C(=O)N[C@@H](CCC(=O)O)C(=O)N[C@H](C(=O)N[C@@H](CC(C)C)C(=O)N[C@@H](C)C(=O)N[C@@H](CCC(N)=O)C(=O)N[C@H](C(N)=O)C(C)C)[C@@H](C)CC)[C@@H](C)O)[C@@H](C)CC)[C@@H](C)CC)C(C)C)[C@@H](C)O)C(C)C [Example 5] (H-[NMeI]VTSLDVPIGLLQILLEQEKQEKEKQQAK([AEEA-AEEA-γGlu-γGlu-C20 diacid])TNAEILAQV-NH2)
- ED50 for fasting serum insulin lowering (DIO mice; male DIO mice): 6.23 nmol/kg
- Body weight change (% change ± SEM) (DIO mice; [1]): 0.88 ± 2.4%
- Fasting blood glucose (mg/dL ± SEM) (DIO mice; [1]): 86 ± 3.5 mg/dL
- Fasting serum insulin (ng/mL ± SEM) (DIO mice; [1]): 1.1 ± 0.2 ng/mL
- Fat mass change (g ± SEM) (DIO mice; [1]): -0.78 ± 0.87 g
- Lean mass change (g ± SEM) (DIO mice; [1]): 1.3 ± 0.42 g
- Blood glucose AUC during ipGTT (DIO mice; [1]): 34313 ± 1608 mg/dL × min^−1
- Serum insulin AUC during ipGTT (DIO mice; [1]): 240 ± 26 ng/mL × min^−1
- Body weight change (% change ± SEM) (DIO mice; [2]): −2.1 ± 0.62%
- Fasting blood glucose (mg/dL ± SEM) (DIO mice; [2]): 83 ± 2.5 mg/dL
- Fasting serum insulin (ng/mL ± SEM) (DIO mice; [2]): 0.65 ± 0.1 ng/mL
- Fat mass change (g ± SEM) (DIO mice; [2]): -2.6 ± 0.33 g
- Lean mass change (g ± SEM) (DIO mice; [2]): 1.3 ± 0.48 g
- Blood glucose AUC during ipGTT (DIO mice; [2]): 30089 ± 2822 mg/dL × min^−1
- Serum insulin AUC during ipGTT (DIO mice; [2]): 167 ± 24 ng/mL × min^−1
- Body weight change (% change ± SEM) (DIO mice; [3]): −11 ± 1.4 %
- Fasting blood glucose (mg/dL ± SEM) (DIO mice; [3]): 80 ± 3.9 mg/dL
- Fasting serum insulin (ng/mL ± SEM) (DIO mice; [3]): 0.52 ± 0.21 ng/mL
- Fat mass change (g ± SEM) (DIO mice; [3]): -5.8 ± 0.48 g
- Lean mass change (g ± SEM) (DIO mice; [3]): -0.04 ± 0.29 g
- Blood glucose AUC during ipGTT (DIO mice; [3]): 32291 ± 2283 mg/dL × min^−1
- Serum insulin AUC during ipGTT (DIO mice; [3]): 108 ± 21 ng/mL × min^−1
- Body weight change (% change ± SEM) (DIO mice; [4]): −13 ± 1.7 %
- Fasting blood glucose (mg/dL ± SEM) (DIO mice; [4]): 80 ± 3.5 mg/dL
- Fasting serum insulin (ng/mL ± SEM) (DIO mice; [4]): 0.25 ± 0.09 ng/mL
- Fat mass change (g ± SEM) (DIO mice; [4]): -6.6 ± 0.74 g
- Lean mass change (g ± SEM) (DIO mice; [4]): 0.16 ± 0.17 g
- Blood glucose AUC during ipGTT (DIO mice; [4]): 32768 ± 4860 mg/dL × min^−1
- Serum insulin AUC during ipGTT (DIO mice; [4]): 163 ± 26 ng/mL × min^−1
- Body weight change (% change ± SEM) (DIO mice; [5]): −13 ± 1.5 %
- Fasting blood glucose (mg/dL ± SEM) (DIO mice; [5]): 77 ± 3.7 mg/dL
- Fasting serum insulin (ng/mL ± SEM) (DIO mice; [5]): 0.41 ± 0.12 ng/mL
- Fat mass change (g ± SEM) (DIO mice; [5]): -6.1 ± 0.89 g
- Lean mass change (g ± SEM) (DIO mice; [5]): 0.49 ± 1.1 g
- Blood glucose AUC during ipGTT (DIO mice; [5]): 26859 ± 1697 mg/dL × min^−1
- Serum insulin AUC during ipGTT (DIO mice; [5]): 285 ± 39 ng/mL × min^−1
- ED50, Blood glucose AUC during ipGTT (DIO mice; [6]): Ambiguous
- ED50, Body weight change (DIO mice; [6]): 10.22 nmol/kg
- ED50, Fasting blood glucose (DIO mice; [6]): Ambiguous
- ED50, Fasting serum insulin (DIO mice; [6]): 6.23 nmol/kg
- ED50, Fat mass change (DIO mice; [6]): 6.60 nmol/kg
- ED50, Lean mass change (DIO mice; [6]): Ambiguous
- ED50, Serum insulin AUC during ipGTT (DIO mice; [6]): 9.70 nmol/kg
- fasting serum glucose and serum insulin (DIO mice; [7]): reduction of fasting serum glucose and serum insulin
- glucose tolerance (glucose and insulin AUC during IPGTT) (DIO mice; [7]): improvements in: glucose tolerance
- total body weight and body composition vs Vehicle DIO mice (DIO mice; s.c. once every three days for 15 consecutive days, statement in words): decreases in: total body weight and improved body composition
- CRHR2 agonist activity in a cAMP assay (human CRHR2b): have CRHR2 agonist activity
